90 compounds from PubChem BioAssay AID463173 (ICCB-Longwood Screening Facility, Harvard Medical School, 2010) can be followed below.

Structures are written as SMILES. The campaign covered roughly 52,000 compounds. About 1,700 (3.3%) were called active. No stated cut-off is given here; in the data, active means survival mostly below about 52% (no sharp cut-off); inactive means mostly above about 56%. The list shows a part of the results.

This assay concerns Wild type. The assay can be described thus: S. aureus survival, RN4220 and DeltatarO strains – OD600, teichoic acid synthesis inhibitors, primary screen (AID 463173). To be noted: S. aureus RN4220 wild type/DeltatarO growth, OD600, 18 h, active compounds read low, screened at 18.75 µg/mL (by protocol).
On to `CN1CCN(C2(CNC(=O)COc3ccc(C(C)(C)C)cc3)CCCCC2)CC1`, for which the survival is inactive: 87%.
The same measure for `O=C(Cn1c(=O)n(-c2ccc(F)c(Cl)c2)c(=O)c2sc3ccccc3c21)NC1CCCCC1`: inactive: 82%; for `Cc1ccc(NC(=O)C2CCCN(S(=O)(=O)c3cccc4nsnc34)C2)c(C)c1` (stereo not given): inactive: 74%.
For `CC(=O)N(Cc1ccccc1)Cc1cc2cc(C)ccc2n2nnnc12` the value was inactive: 107%.
For `CCN(CC)S(=O)(=O)c1ccc2c(c1)N(CC(=O)NCCCN1CCN(c3cc(C)ccc3C)CC1)C(=O)CO2` the value was inactive: 121%; for `CCOc1ccc(C(=O)NCCc2csc(-c3cccnc3)n2)cc1`, inactive: 72%.
On to `CCNC(=O)C1CCCN(c2nn3cc(-c4ccc(C)cc4)nc3s2)C1` (stereo not given), for which the survival was inactive: 83%.
Take `CC(C)c1ccc(CNCCSc2nnnn2-c2ccccc2)cc1`: the survival is inactive: 80%.
As to `CCOCc1[nH]c(=S)[nH]c(=O)c1Cc1ccc(OCC)cc1`, the survival was inactive: 107%.
With `CC(C)c1ccc(NC(=O)CN2CCC(n3nnc4ccccc43)CC2)cc1`, the survival is inactive: 80%.
For `Cc1cc(C)cc(NC(=O)C2CCN(c3nc4ccccc4nc3C(F)(F)F)CC2)c1` the value was inactive: 74%; for `CCOc1ccc(-n2nc3ccc(NC(=O)COc4ccccc4)cc3n2)cc1`, inactive: 90%; for `CCC(C)S(=O)(=O)c1oc(-c2ccc(F)cc2)nc1S(=O)(=O)c1ccc(F)cc1` (stereo not given), inactive: 49%.
In the case of `Cc1scc(-c2ccccc2)[n+]1CCO`, the survival is inactive: 109%.
For `CCc1ccc(NC(=O)Cn2c(=O)n(CCC(=O)NCCc3ccc(OC)c(OC)c3)c(=O)c3ccccc32)cc1` the value was inactive: 102%; for `CN(Cc1ccccc1)C(=O)c1ccc(CSc2nc3cccnc3n2Cc2ccccc2)cc1`, inactive: 130%; for `Cc1cccc(N2CCN(C(=O)Cc3c(C(=O)O)c(C)cn3C)CC2C)c1` (stereo not given), inactive: 73%.
As to `COC(=O)c1cc2c(ccn2-c2ccc(F)cc2)n1CC1CCCCC1`, the survival was inactive: 105%.
The same measure for `COc1ccc(N2CCN(C(=O)C3CCCN(S(=O)(=O)c4ccc5c(c4)oc(=O)n5C)C3)CC2)cc1` (stereo not given): inactive: 89%.
As to `CCC(=O)NCCc1sc2nc(-c3ccc(OC)cc3)nn2c1C`, the survival was inactive: 77%.
The same measure for `COC(=O)c1c(NC(=O)COc2ccc(C(C)C)cc2)sc2c1CCCC2`: inactive: 51%.
Consider `COc1ccc(C2CC(=O)Nc3c2c(C)nn3-c2nc(C)cc(C)n2)c(OC)c1OC` (stereo not given), for which the survival was inactive: 85%.
The same measure for `COc1ccccc1CCNC(=O)C1(c2cccs2)CCOCC1`: inactive: 71%; for `CCc1cccc(NC(=O)CCn2nc(C)cc2C)c1`: inactive: 77%; for `COc1ccc(OC)c(NC(=O)c2nnn(CC(=O)Nc3ccc(C(C)C)cc3)c2N)c1`: inactive: 45%.
For `CCC(C)(C)Nc1ncccc1C(=O)O` the value was inactive: 121%; for `COc1ccc(NC(=O)Cn2cnc3c(nc4n3CCCCC4)c2=O)cc1Cl`, inactive: 72%; for `CCCS(=O)(=O)Nc1cccc(-c2cn3ccsc3n2)c1`, inactive: 159%.
For `Cc1cccc(CSc2nc3ccncc3n2CC(=O)N(C)C2CCCCC2)c1` the value was inactive: 88%; for `COc1ccc(CCNC(=O)c2ccc3nc(CCc4ccccc4)oc3c2)cc1OC`, active: 10%; for `COc1ccc(NC(=O)Cn2c(=O)oc3cc(S(=O)(=O)N4CCCC4)ccc32)cc1OC`, inactive: 79%.
As to `Cc1ccc(NC(=O)c2ccc(-c3ccccc3)s2)cc1`, the survival was inactive: 85%.
The same measure for `Cc1ccc(N2C(=O)CSC23C(=O)N(CC(=O)NCCc2ccccc2)c2ccccc23)cc1` (stereo not given): inactive: 74%; for `CCC1CN(C(=O)N2CCC(C(=O)NCc3cccs3)CC2)c2ccccc2O1` (stereo not given): inactive: 88%.
As for `N#CC1=C(N)Oc2n[nH]c(CSc3ccccc3)c2C1Cc1ccccc1` (stereo not given), the survival was inactive: 106%.
For `O=c1oc2c(CN3CCOCC3)c(O)ccc2cc1-c1ccccc1` the value was inactive: 80%.
`COc1ccc(N2CCN(C(=O)c3noc4c3CCCCC4)CC2)cc1`: the survival is inactive: 68%.
The same measure for `O=C(Nc1ccc2oc(-c3ccc(Br)cc3)nc2c1)c1cc2ccccc2o1`: inactive: 76%; for `COc1cccc(CNCc2c(C(=O)O)n(Cc3ccc(C)cc3)c3cc(C)ccc23)c1OC`: inactive: 106%; for `CC(=O)c1ccc(NC(=O)c2sc(-n3nc(C)c(Cc4ccc5c(c4)OCO5)c3C)nc2C)cc1`: inactive: 81%.
With `CCC1CCCCN1CCCNC(=O)c1ccc2c(c1)N(Cc1cccc(Cl)c1)C(=O)c1ccccc1S2(=O)=O` (stereo not given), the survival was inactive: 65%.
The same measure for `Cc1nnc(NC(=O)CSc2nc3c([nH]c4ccccc43)c(=O)n2-c2cccc(Cl)c2)s1`: inactive: 71%; for `COc1ccc(-c2nc3ccccc3o2)cc1NC(=O)c1cc(Br)ccc1OC`: inactive: 66%.
In the case of `COc1ccc(C)cc1NC(=O)NCCn1nnc2cc(S(=O)(=O)N(C)C)ccc21`, the survival is inactive: 67%.
`O=C(NCCc1nc2ccccc2n1Cc1ccc(Cl)cc1)c1ccccc1`: the survival was inactive: 91%.
As for `CCOC(=O)c1ccccc1NC(=O)c1sc2nc(-c3ccc(F)cc3)cn2c1C`, the survival was inactive: 74%.
For `Cc1ccc(C(=O)OCc2cc(=O)n3nc(CC(C)C)sc3n2)cc1` the value was inactive: 127%; for `COc1ccc(CCNC(=O)c2cnc3sc(N4CCCCCC4)nn3c2=O)cc1`, inactive: 72%.
For `Cc1ccc2occ(CC(=O)Nc3c(C)cccc3C)c2c1` the value was inactive: 113%.
Regarding `CCCN(C(=O)c1ccc2c(=O)n3c(nc2c1)CCCCC3)c1cccc(Cl)c1`, the survival was inactive: 85%.
In the case of `Cc1cc(C)cc(NCc2nnc3n2CCCCC3)c1`, the survival was inactive: 85%.
The same measure for `Cc1cccc(C)c1NC(=O)CCSCCc1ccccn1`: inactive: 75%.
The same measure for `COc1cn(CC(=O)Nc2ccc(C)cc2)c(CN2CCCCC2)cc1=O`: inactive: 73%; for `COc1ccc(OCC(=O)N2CCN(C(=O)c3ccc(OC)c(OC)c3)CC2)cc1`: inactive: 134%.
`COc1ccccc1CN1CCC(CNC(=O)c2cnn(-c3cccc(Cl)c3)c2C2CCN(C(=O)OC(C)(C)C)CC2)CC1`: the survival is inactive: 88%.
For `Cc1c(NS(=O)(=O)c2ccc(C(C)(C)C)cc2)c(=O)n(-c2ccccc2)n1C` the value was inactive: 62%.
For the compound `CC(=O)N1CCc2cc(Br)cc(S(=O)(=O)CCC(=O)NCc3ccc(F)cc3)c21`, the survival is inactive: 73%.
Consider `O=C(CCNS(=O)(=O)c1ccc2c(c1)CCN2C(=O)C1CC1)Nc1ccc(Cl)cc1`, for which the survival was inactive: 71%.
Turning to `COCC(C)NCc1ccccc1OC` (stereo not given), the survival was inactive: 110%.
Take `Cc1cc2c(cc1S(=O)(=O)NCc1ccc(F)cc1)OCC(=O)N2`: the survival is inactive: 82%.
The same measure for `Cc1cccc(NC(=O)CN2C(=O)C(c3ccc(F)cc3)=NC23CCCCCC3)c1C`: inactive: 73%.
On to `COc1ccc(NC(=O)CN2C(=O)COc3ccc(S(=O)(=O)NC4CCCC4)cc32)cc1OC`, for which the survival is inactive: 71%.
For `COc1ccc(C(=O)Nc2ccccc2)cc1` the value was inactive: 107%.
The same measure for `O=C(c1ccccc1)n1nc(-c2ccc(Cl)cc2)nc1NCc1ccco1`: active: 25%; for `CCOC(=O)c1cc2c(=O)n3ccccc3nc2n(CCOC)c1=NC(=O)c1c(-c2c(F)cccc2Cl)noc1C`: inactive: 127%; for `CSc1ccc(CCNC(=O)Cn2ncc3c([nH]c4ccccc43)c2=O)cc1`: inactive: 69%.
The same measure for `Cc1ccc(C2C(C#N)=C(N)SC(N)=C2C#N)c(C)c1`: inactive: 116%.
Regarding `Cc1ccc(-n2ncc3c(NC4CCCCC4)ncnc32)cc1C`, the survival is inactive: 67%.
As for `COc1ccccc1C(=O)NC(=O)Nc1ccc(-c2cc(C(F)(F)F)nn2-c2ccccc2)cc1`, the survival is active: 5%.
For `CCOc1ccc2c(c1)NC(c1ccc(OCC)c(OCC)c1)=NC(c1ccc(F)cc1)=N2` the value was inactive: 81%.
For `CCc1ccc(N(CC)C(=O)c2cn(C)c(=O)c3cc(OC)c(OC)cc23)cc1` the value was inactive: 148%; for `CCc1ccc(C(=O)c2cn(CC(=O)Nc3ccc4c(c3)OCO4)c3ccc(Cl)cc3c2=O)cc1`, inactive: 79%.
`Cc1cc(=O)[nH]c2c(C)c(Cl)ccc12`: the survival was inactive: 108%.
In the case of `Cc1ccc(NC(=O)Cn2nc(C(F)(F)F)c3c2CCCC3)cc1`, the survival was inactive: 126%.
For the compound `CCN(CC)c1ccc(NC(=O)C2CCN(S(=O)(=O)c3c(C)noc3/C=C/c3ccccc3F)CC2)c(C)c1`, the survival is inactive: 138%.
For `CC(C)(C)C1CCc2c(sc3nc(-c4cc5cc(Cl)ccc5oc4=O)[nH]c(=O)c23)C1` (stereo not given) the value was inactive: 84%; for `CCOc1ccc(CCNC(=O)c2c3c(nc4ccccc24)C(=O)N(C2CCCCC2)C3)cc1`, inactive: 68%.
For `CCn1c(CNC(=O)c2ccc(OC)cc2)nnc1SCC(=O)Nc1cccc(C)c1` the value was inactive: 119%.
The same measure for `Cc1ccc(S(=O)(=O)N2CCCc3cc(NC(=O)c4ccc(Cl)cc4)ccc32)cc1`: inactive: 77%.
On to `Cc1ccc(S(=O)(=O)NCCc2nnc3ccc(SCC(=O)Nc4c(C)cc(C)cc4C)nn23)cc1`, for which the survival was inactive: 86%.
Consider `COc1ccccc1NC(=O)c1cc2cc3ccc(OC)c(Cl)c3nc2s1`, for which the survival was inactive: 79%.
On to `O=c1c(Cl)c(N2CCN(CCO)CC2)cnn1-c1ccccc1`, for which the survival was inactive: 107%.
In the case of `COC(=O)c1c(NC(=O)c2cc(=O)c3cc(C)cc(C)c3o2)sc2c1CCC2`, the survival was inactive: 86%.
With `CCOC(=O)c1ccc(NC(=O)c2nc(SCc3ccc(F)cc3)ncc2Cl)cc1`, the survival is inactive: 110%.
In the case of `Cc1ccc(CC(=O)NCc2nc(-c3ccccc3)no2)cc1`, the survival is inactive: 89%.
The same measure for `O=C(NCCc1ccccc1Cl)c1cc2ccccn2n1`: inactive: 140%.
Take `CCCCn1c(=O)c2oc3ccccc3c2n(Cc2ccc(C)cc2)c1=O`: the survival was inactive: 86%.
As for `Cc1cc(SCC(=O)Nc2ccc(F)cc2F)nc(=O)[nH]1`, the survival is inactive: 115%.
For `COc1ccc2ncc3c(-c4ccc(C)c(C)c4)nn(CC(=O)Nc4ccccc4)c3c2c1` the value was inactive: 81%.
The same measure for `CCCN(CCC)CN1C(=O)S/C(=C/c2ccc(N(CC)CC)cc2)C1=O`: inactive: 116%.
